# Laboratory results reported in the supplement of paper PMC11880418.
# Structures can show the parent of a compound that is named as a salt. The list shows a part of the results. The data scatter; read single values as rough.
# Tested on: MKN45
# Experiment: ALDHbr (CSC) cell proportion score relative to DMSO vehicle (ratio to DMSO); breast (SUM159) / gastric (MKN45) / pancreatic (PANC1) / colon cancer lines; ALDHbr cells have high ALDH activity and are rich in cancer stem cells (CSC); higher = more CSC (ALDHbr) cells remaining
# Conditions: 10 µM; 72 h
# 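Note: High-content imaging of ALDEFLUOR-stained cells with Hoechst-labelled nuclei in 384-well plates, triplicate wells, scored as Z-score against 0.1% DMSO vehicle, negative meaning fewer ALDHbr cells.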
row,SMILES,ALDHbr
1,Cc1cccc(C)c1NC1=NCCCS1 [Xylazine],1.06
2,C[N+]1([O-])[C@@H]2C[C@@H](OC(=O)[C@H](CO)c3ccccc3)C[C@H]1[C@@H]1O[C@@H]12 (stereo partly specified) [Scopolamin-N-oxide hydrobromide],1.17
3,C[C@]12CCC(=O)C=C1CC[C@@H]1[C@@H]2C(=O)C[C@]2(C)C(=O)CC[C@@H]12 [Adrenosterone],0.338
4,CN1[C@@H]2CC[C@H]1C[C@@H](OC(=O)C(CO)c1ccccc1)C2 (stereo partly specified) [Atropine sulfate monohydrate],1.33
5,C#C[C@]1(O)CC[C@H]2[C@@H]3CCC4=CC(=O)CC[C@]4(C)[C@H]3CC[C@@]21C [Ethisterone],0.883
6,O=C1CC[C@@]2(O)[C@H]3Cc4ccc(O)c5c4[C@@]2(CCN3CC2CC2)[C@H]1O5 [Naltrexone hydrochloride dihydrate],0.935
7,CCC(COC(=O)c1cc(OC)c(OC)c(OC)c1)(c1ccccc1)N(C)C (stereo unspecified) [Trimebutine],0.758
8,CCC1(CC)C(=O)C=CNC1=O [Pyrithyldione],1.01
9,C=C1CC[C@@]2(O)[C@H]3Cc4ccc(O)c5c4[C@@]2(CCN3CC2CC2)[C@H]1O5 [Nalmefene hydrochloride],1.05
10,CN1[C@@H]2C[C@@H](OC(=O)[C@H](CO)c3ccccc3)C[C@H]1[C@@H]1O[C@@H]12 [Scopolamine hydrochloride],1.24
11,Clc1ccc(C(OCCN2CCCCC2)c2ccccc2)cc1 (stereo unspecified) [Cloperastine hydrochloride],0.9
12,C=CCN1CC[C@]23c4c5ccc(O)c4O[C@H]2C(=O)CC[C@@]3(O)[C@H]1C5 [Naloxone hydrochloride],0.878
13,COC[C@@H](NC(C)=O)C(=O)NCc1ccccc1 [Lacosamide],0.978
14,CC(NC(C)(C)C)C(=O)c1cccc(Cl)c1 (stereo unspecified) [Bupropion hydrochloride],1.02
15,C[C@]12Cc3c[nH]nc3C[C@@H]1CC[C@@H]1[C@@H]2CC[C@@]2(C)[C@H]1CC[C@]2(C)O [Stanozolol],0.828
16,C[C@]12CC[C@@H](O)C[C@H]1CC[C@@H]1[C@@H]2CC[C@]2(C)C(=O)CC[C@@H]12 [3-alpha-Hydroxy-5-beta-androstan-17-one],0.834
17,C[N+]12CCC(CC1)C(OC(=O)C(O)(c1ccccc1)c1ccccc1)C2 (stereo unspecified) [Clidinium bromide],0.805
18,CCCN1C[C@H](CSC)C[C@@H]2c3cccc4[nH]cc(c34)C[C@H]21 [Pergolide mesylate],1.09
19,CN1C(=O)CCS(=O)(=O)C1c1ccc(Cl)cc1 (stereo unspecified) [Chlormezanone],0.978
20,O=[N+]([O-])O[C@@H]1CO[C@H]2[C@@H]1OC[C@@H]2O [Isosorbide mononitrate],0.783
21,CC[N+]1(C)CCCC(OC(=O)C(O)(c2ccccc2)c2ccccc2)C1 (stereo unspecified) [Pipenzolate bromide],1.04
